Assay results taken from the supplement of paper PMC3334620.
In all, about 33,000 sequences were measured (“E-score (-0.5 to 0.5)”: median about -0.021, highest 2% from about 0.32 on). The list shows a part of the results.

target: T1, Zap1 (UniProt P47043); experiment: PBM E-score (8-mer binding enrichment) (E-score (-0.5 to 0.5)); higher = stronger / more preferred TF binding; most listed sequences are background and not binding sites; settings: protein concentration: 200 nM; construct: GST-full length
T1 sequence: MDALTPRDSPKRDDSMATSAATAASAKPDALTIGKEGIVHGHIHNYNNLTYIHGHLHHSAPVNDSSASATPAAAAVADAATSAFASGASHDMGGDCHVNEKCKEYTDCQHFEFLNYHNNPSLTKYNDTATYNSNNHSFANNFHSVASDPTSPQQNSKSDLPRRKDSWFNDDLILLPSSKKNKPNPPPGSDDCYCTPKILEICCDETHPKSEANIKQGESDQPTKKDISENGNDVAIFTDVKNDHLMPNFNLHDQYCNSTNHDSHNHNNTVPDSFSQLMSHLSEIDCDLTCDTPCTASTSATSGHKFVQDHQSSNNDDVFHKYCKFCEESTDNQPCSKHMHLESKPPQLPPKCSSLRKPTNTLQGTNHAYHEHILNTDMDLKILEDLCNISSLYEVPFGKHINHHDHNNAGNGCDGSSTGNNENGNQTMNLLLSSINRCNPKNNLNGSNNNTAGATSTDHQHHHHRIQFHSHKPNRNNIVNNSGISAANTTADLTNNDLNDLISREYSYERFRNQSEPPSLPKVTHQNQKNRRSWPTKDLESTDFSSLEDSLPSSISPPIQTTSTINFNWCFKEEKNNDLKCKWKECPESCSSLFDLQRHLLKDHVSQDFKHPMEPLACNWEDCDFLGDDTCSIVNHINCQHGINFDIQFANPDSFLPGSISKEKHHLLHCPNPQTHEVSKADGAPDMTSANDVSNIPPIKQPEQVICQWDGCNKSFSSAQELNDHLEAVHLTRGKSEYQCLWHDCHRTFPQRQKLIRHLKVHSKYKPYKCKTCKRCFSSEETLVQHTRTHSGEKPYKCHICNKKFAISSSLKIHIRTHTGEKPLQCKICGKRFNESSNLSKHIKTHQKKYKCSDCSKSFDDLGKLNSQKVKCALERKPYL
Procedure, shortened: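 Yeast transcription factors carrying a GST tag, as full-length proteins or DNA-binding domains, were produced by PURExpress in vitro transcription/translation. About 100-200 nM protein was applied to universal all-10-mer Agilent arrays, double-stranded by primer extension on fresh or once-stripped slides. Bound protein was detected with fluorescent anti-GST, and scans were normalised with masliner. The Universal PBM Analysis Suite gave each ungapped eight-base word, pooled with its reverse complement, an E-score, a modified Wilcoxon-Mann-Whitney statistic.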

Sequence	PBM E-score
CAGTCACC	-0.113
GAAGGGCA	-0.219
ACGGGTCT	-0.021
AGGATTTC	-0.162
AAGTAGCA	-0.0495
CCTGTCAG	-0.0732
ATGGAACC	0.0628
ACTGCGCC	-0.289
CATAACGG	-0.0515
CGCGTTAC	0.141
GACCTAGA	0.0626
GTTAAAAC	0.22
TTCTAAAA	0.187
CATTTCCC	0.12
TACTCTGA	0.0488
ATAATGCC	0.0451
CGTCCTAA	0.00473
GCGTGCAC	-0.208
GATACATC	-0.109
ATGTCTAC	-0.134
AAAAAACT	0.00919
ATGTTGGA	0.0998
GCTTTCCA	-0.111
GGTTTTCA	0.26

Sequence	PBM E-score
CTCCAAAG	0.0186
AAGATGCC	-0.281
ACTTTAGC	-0.16
AGGGGAAC	-0.0872
CCTACTCG	-0.124
CATAAACC	0.135
AGGTATGG	0.155
AGGCCGAG	0.0111
TGGCTGAA	-0.139
ATGTCGGG	0.0104
CAGATCGA	-7e-05
AACACTAA	0.179
GGAAATGA	0.115
GATAAGGA	-0.0277
AACAACTG	0.189
AATCACGT	-0.15
CGCTAGCA	-0.0784
GCACGAAC	0.044
GGAATCAC	0.0891
CCATCTAA	-0.0281
AGAGCACG	-0.217
GGAGGTTA	0.36
AGAAGGGA	-0.422
ACGGCCGC	0.0225

Sequence	PBM E-score
GGAAGGGA	-0.268
AAACAACT	0.114
CACCTCCC	-0.0903
CGGTCAGC	0.0641
AAATTAGC	0.0653
GCCGAGCA	-0.24
GTATATCA	0.113
AAAGAGGA	-0.229
GACGTCTA	-0.203
ACAACCGG	0.194
CATTTGCC	-0.132
ATACTGTA	0.173
TTCTGAAA	0.126
AGGCGCAC	-0.0796
CGAGTACC	0.149
CACTTCAA	0.0419
AATGATAC	0.208
CGCCCTTA	0.0874
CACTGATC	0.0193
CCTGAAAC	0.238
CTTTACCC	0.129
CGGCATGA	0.062
CATATTCA	0.0632
AGGGTGAA	0.0968

Sequence	PBM E-score
GGAGACCA	-0.0236
CCCTGCTC	0.00487
CTGCGTGC	-0.227
CTCTAGGC	-0.12
CCGGACGG	-0.0372
ACTCCCCG	-0.0274
AATTGCCG	-0.248
GGCGGACA	-0.0625
GCCAGTTA	-0.11
AGTCGTAT	-0.19
CTTAAATA	0.0782
CGACCCTA	0.328
GGTGACCA	0.283
CCGATGCG	-0.217
GGCTTGGA	-0.31
CGGTACGA	0.057
ACCCATTA	0.224
GCGTATCC	-0.12
CGAACACG	-0.0862
CCCACGCG	0.00595
GTGCTTGA	-0.0867
CAAGTGTG	-0.0659
